Here are results for 172 sequences from paper PMC4242493.

The other results are listed elsewhere or left out. The list includes weakly bound sequences.

The target of this experiment is MaxL homodimer (UniProt P61244). Nature of the experiment: universal protein-binding microarray (PBM). The conditions noted are these: PBS-based mixture, 10 nM His-tagged protein dimer, 2% milk, 200 ng/uL BSA, 50 ng/uL salmon testes DNA, 0.02% TX-100; detection with Alexa 488 anti-His …; high values mean tight binding; most listed sequences are background and not binding sites; double strand, one strand shown.
Sequence of UniProt P61244 (P61244 whole entry): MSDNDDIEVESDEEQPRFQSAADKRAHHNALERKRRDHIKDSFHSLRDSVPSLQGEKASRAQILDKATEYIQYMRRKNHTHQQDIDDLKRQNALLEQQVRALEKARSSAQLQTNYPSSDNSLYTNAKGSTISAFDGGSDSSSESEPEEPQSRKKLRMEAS
As to GACATTAC, the binding signal (normalized occupancy) was 0.0843.
With CATGTCCC the figure was 0.0808; with CCGCACGG, 0.0742.
As for CTAGACGA, the figure is 0.0685; as for CTGAGACC, 0.0742; as for CCTCTAGC, 0.0704.
AGACCTAC: the binding signal (normalized occupancy) came to 0.0715.
As for CATCAGCC, the figure is 0.0757; as for AGGTACAG, 0.073; as for CGAGGAAC, 0.0734.
ATAGACAC: the binding signal (normalized occupancy) was 0.0813.
In the case of ACCGCCCG, the binding signal (normalized occupancy) turned out to be 0.0683.
As for GCCGCCTA, the figure is 0.0717.
With GGTGTTCA the figure was 0.0754.
With GAGCTCGA the figure was 0.0651; with CCTTACCC, 0.0795; with ATCGATCG, 0.0787.
Take CGGTAACC: the binding signal (normalized occupancy) came to 0.0728.
As for AGACAAAG, the figure is 0.0721.
For the sequence AGTTTAAA, the binding signal (normalized occupancy) worked out at 0.0709.
As for AATCATGC, the figure is 0.0958; as for ATCTCACG, 0.0793; as for ACACGCGT, 0.13.
For the sequence CCCTAGAA, the binding signal (normalized occupancy) stood at 0.0758.
With CCGAGTGA, the binding signal (normalized occupancy) turned out to be 0.0716.
As for CCCTATGA, the figure is 0.0755.
As for CGGTCTAA, the binding signal (normalized occupancy) was determined as 0.0692.
As for CTAGCGCC, the figure is 0.0711; as for CTGCGAAA, 0.0712; as for ACTTTACT, 0.0726.
As for AGCGTGCG, the figure is 0.109.
For CGACCAAC, the binding signal (normalized occupancy) was determined as 0.0711.
Consider AAAGCTCC, for which the binding signal (normalized occupancy) turned out to be 0.0692.
As for GGTACAAC, the figure is 0.0788.
Turning to GTAATAGA, the binding signal (normalized occupancy) was 0.0753.
Regarding CTACGAAA, the binding signal (normalized occupancy) came out at 0.0737.
Turning to AGTTATTG, the binding signal (normalized occupancy) was found to be 0.0779.
With GACAGAAC the figure was 0.0726.
As for CCTCATAA, the binding signal (normalized occupancy) is 0.0838.
As for GTCTAGTA, the figure is 0.0805; as for CCGGACAC, 0.0749; as for GAAGGCAA, 0.072.
With CTAGGTTC the figure was 0.0693.
As for ACCGTGCA, the figure is 0.0786; as for CCGTTGCC, 0.0682.
Turning to AGAAAGCA, the binding signal (normalized occupancy) stood at 0.0839.
Regarding GAATTGAC, the binding signal (normalized occupancy) was 0.0748.
With GCCGTTTA the figure was 0.0727.
As for AACCCATG, the figure is 0.0961.
As for CGCGGATC, the figure is 0.0754; as for CCATTGGC, 0.0715; as for CTCAGTTA, 0.074.
Take CGTCTCCA: the binding signal (normalized occupancy) turned out to be 0.0728.
With ACGCTGTC the figure was 0.0787.
As to ACCATACG, the binding signal (normalized occupancy) came out at 0.0805.
On to CCGCCAAG, for which the binding signal (normalized occupancy) was found to be 0.0676.
Consider AACACAGT, for which the binding signal (normalized occupancy) is 0.0757.
For the sequence ACATCCTA, the binding signal (normalized occupancy) came to 0.0822.
With TAATGATA the figure was 0.0786; with CAGCCTGG, 0.0741.
With GCGATAAA the figure was 0.0758; with AATACGTG, 0.0807; with TGGGTGAA, 0.0791.
As for CGAATGCA, the figure is 0.0799; as for AGCTAAAA, 0.0736; as for CCGTTGAA, 0.0673.
Consider GTGCAGTA, for which the binding signal (normalized occupancy) is 0.0802.
As for TGTAGACA, the figure is 0.0828.
With TGTGTCAA the figure was 0.0893; with AGTCGATG, 0.0703.
As for CGTAAGAA, the figure is 0.0752.
With CCTGTATC, the binding signal (normalized occupancy) was 0.0763.
With CAGCTATC the figure was 0.0739.
With CCACTCAA the figure was 0.0788.
As for GAAGAGTC, the figure is 0.0783; as for GGCTGTGA, 0.0774.
With AGCCGGTG, the binding signal (normalized occupancy) amounted to 0.07.
Turning to ACGGGGAT, the binding signal (normalized occupancy) amounted to 0.0797.
With ATCTCTCC the figure was 0.0774; with CGTGATAC, 0.0943; with ATCCACCG, 0.0756.
As to GAAGACAA, the binding signal (normalized occupancy) was 0.072.
For GTACGGAC, the binding signal (normalized occupancy) came out at 0.0736.
With AGCCCAGC the figure was 0.0684.
As for CCGAGTAA, the figure is 0.072; as for CAAGGTTA, 0.0735; as for AGGTTTCC, 0.073.
With ACTCCGCT the figure was 0.0721.
Turning to GCAATCAA, the binding signal (normalized occupancy) worked out at 0.0753.
As for GGCTTAAA, the figure is 0.0668; as for TGGTACCA, 0.0812.
With CCGTAAGC the figure was 0.0734.
As for CAACTGAA, the figure is 0.0717; as for ACAGAGTA, 0.073; as for CATGAGTC, 0.091.
With TGCACTAA, the binding signal (normalized occupancy) is 0.0743.
Regarding ATGACCCC, the binding signal (normalized occupancy) is 0.0894.
As for GAACGGCC, the figure is 0.0704; as for CCCGGAAA, 0.0696; as for TGGTATAA, 0.0843.
As for CAAATGCC, the figure is 0.0743.
As for ACCGCAGG, the figure is 0.0665; as for AACTATTG, 0.0729; as for AATCGTAC, 0.0751.
Take CGCTTCTA: the binding signal (normalized occupancy) was determined as 0.0728.
With GCATCCAC, the binding signal (normalized occupancy) stood at 0.0831.
As for CTATGGAA, the figure is 0.0738; as for CCCCTATC, 0.0818.
With AGACTGAG the figure was 0.0653; with GACCTACA, 0.0734.
Take ATCGGCCC: the binding signal (normalized occupancy) was 0.0713.
With GAGAAGGC the figure was 0.0712; with AACCCTGA, 0.078; with ATAACAGC, 0.0824.
As for CTTCCGAC, the figure is 0.0726; as for CACAACTC, 0.0769.
For CCTCGACA, the binding signal (normalized occupancy) turned out to be 0.0815.
In the case of CCATACAA, the binding signal (normalized occupancy) is 0.0832.
With GTGAGGTA the figure was 0.084; with ATGTAGGC, 0.0776; with ACATTCCG, 0.0797.
On to ATAACCCA, for which the binding signal (normalized occupancy) was 0.0805.
As for CTCGAAAG, the figure is 0.0685; as for AGTATTAT, 0.0827.
As for AATACGCG, the figure is 0.0742; as for ACCGTCCT, 0.0712; as for TCCTGTCA, 0.0719.
As for CTTGTTTA, the figure is 0.0714; as for TTAGCCAA, 0.0744; as for CTCACAAG, 0.0771.
Take GTCACTCA: the binding signal (normalized occupancy) turned out to be 0.0715.
With AAAAGTAC the figure was 0.0759.
With TTGATCAA the figure was 0.0795; with CCCTACTA, 0.079; with ACACGAAC, 0.0763.
With GATGATCC the figure was 0.0776; with AAAGAGTG, 0.0765.
With CGCCAGAG, the binding signal (normalized occupancy) worked out at 0.0665.
With GCTCAACA the figure was 0.0722; with ATGTACGC, 0.0847.
As to ACCTTTAA, the binding signal (normalized occupancy) is 0.0744.
Turning to AGCACACT, the binding signal (normalized occupancy) came to 0.0815.
With ATCGTTAA the figure was 0.0796; with GCAACCGA, 0.0694; with ATGAGGCC, 0.0811.
As for CGTTAACC, the figure is 0.0793.
As for GCGAAATA, the binding signal (normalized occupancy) turned out to be 0.0711.
With ACACATCC the figure was 0.0784.
For the sequence CTAATTAG, the binding signal (normalized occupancy) worked out at 0.0738.
As for CTAAGGCA, the figure is 0.0699; as for AGCGAAGA, 0.0653; as for GAAGCGCA, 0.062.
As for CACGCTAC, the figure is 0.0972; as for CCCCGAAA, 0.0755.
With ACAGATAC the figure was 0.0793; with ATTATGCC, 0.0763; with GCTGCCCC, 0.0738.
As to ATGACACA, the binding signal (normalized occupancy) was 0.0829.
As for GCGGTTGA, the figure is 0.0699; as for AACTCAGA, 0.0759.
As for AACCGACT, the figure is 0.0658; as for CGGAACAC, 0.0775; as for CGGGTGTA, 0.079.
As for ACTCATTG, the figure is 0.0811; as for GGTGAGTA, 0.0795; as for GCTCATGA, 0.0859.
For AACAACGC, the binding signal (normalized occupancy) turned out to be 0.0747.
As for GATTTCAC, the figure is 0.0722; as for AAAAACTC, 0.0696; as for ATGGTGTA, 0.0823.
Consider GACAGTCA, for which the binding signal (normalized occupancy) is 0.0721.
With CCGTTTAG the figure was 0.0717.
